Test results taken from PMC4336329 (PLoS ONE, 2015).
The whole screen tested about 310,000 compounds, of which about 14,000 (4.5%) showed an effect of 50% or more. The effect is printed as a negative number. The list shows a part of the results.

Molecular target: human ether-à-go-go-related gene (hERG) potassium channel (human, UniProt Q12809)
Assay: primary screen, population patch clamp on CHO cells stably expressing hERG
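Note: peak tail current of the secondary pulse compared with the same well before compound.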

Chain of human ether-à-go-go-related gene (hERG) potassium channel (Q12809 whole entry, looked up): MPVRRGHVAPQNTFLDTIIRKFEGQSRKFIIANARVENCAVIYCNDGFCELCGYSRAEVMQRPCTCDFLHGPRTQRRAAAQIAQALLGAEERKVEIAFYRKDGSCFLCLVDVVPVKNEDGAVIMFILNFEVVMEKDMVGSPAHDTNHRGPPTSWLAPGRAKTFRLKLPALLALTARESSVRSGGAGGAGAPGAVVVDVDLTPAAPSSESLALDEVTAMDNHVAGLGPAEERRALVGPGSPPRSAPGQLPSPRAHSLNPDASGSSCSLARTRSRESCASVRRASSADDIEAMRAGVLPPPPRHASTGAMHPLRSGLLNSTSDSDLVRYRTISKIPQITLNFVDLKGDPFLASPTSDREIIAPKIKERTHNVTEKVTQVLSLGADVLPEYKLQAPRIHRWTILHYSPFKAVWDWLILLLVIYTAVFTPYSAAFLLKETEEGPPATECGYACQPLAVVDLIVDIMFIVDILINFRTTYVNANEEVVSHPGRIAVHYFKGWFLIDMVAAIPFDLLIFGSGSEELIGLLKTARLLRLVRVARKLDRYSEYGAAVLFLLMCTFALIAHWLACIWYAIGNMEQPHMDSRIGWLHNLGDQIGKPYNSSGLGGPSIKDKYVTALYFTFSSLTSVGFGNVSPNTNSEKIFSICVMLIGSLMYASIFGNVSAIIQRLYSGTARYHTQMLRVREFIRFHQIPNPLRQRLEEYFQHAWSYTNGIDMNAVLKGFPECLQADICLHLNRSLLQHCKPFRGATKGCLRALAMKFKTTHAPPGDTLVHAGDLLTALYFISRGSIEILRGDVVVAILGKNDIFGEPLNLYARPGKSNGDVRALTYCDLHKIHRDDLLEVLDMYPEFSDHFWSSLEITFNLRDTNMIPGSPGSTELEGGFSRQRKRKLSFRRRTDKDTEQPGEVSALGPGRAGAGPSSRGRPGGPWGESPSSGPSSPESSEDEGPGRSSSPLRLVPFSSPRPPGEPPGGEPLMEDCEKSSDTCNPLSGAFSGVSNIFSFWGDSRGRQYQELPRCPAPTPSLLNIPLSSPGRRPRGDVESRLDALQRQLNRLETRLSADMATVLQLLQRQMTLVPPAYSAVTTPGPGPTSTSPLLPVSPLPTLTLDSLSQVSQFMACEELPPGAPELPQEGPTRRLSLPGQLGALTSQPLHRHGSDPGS

SMILES	hERG current change (%, negative = inhibition) at 10uM
O=C(Nc1nnc(-c2ccccc2Cl)o1)c1cccnc1	9.03%
COc1ccc(C(=O)NCc2ccco2)cc1S(=O)(=O)N1CCOCC1	-12.7%
COc1cc(C(F)(F)F)ccc1C(=O)NCCc1ccco1	-20.8%
CN(C)c1ccc(NC(=O)Nc2ccc3snnc3c2)cc1	7.25%
O=C(CN1C(=O)NC2(CCCCCCC2)C1=O)N1CCOCC1	-5.51%
COc1cc2c(cc1OC)C(C(=O)N1CCOCC1)C(c1cccs1)N(C)C2=O (stereo not shown)	4.09%
CCc1ccc(-c2nc(CS(=O)CC(=O)NCCCN3CCC(C)CC3)c(C)o2)cc1 (stereo not shown)	-11.2%
C=C(C)C(=O)Nc1cccnc1Oc1ccc(F)cc1F	1.98%
O=C(Nc1ccccc1)c1cccc(S(=O)(=O)Nc2ccccn2)c1	23.6%
CN(C)c1ccc2c(O)cc(=O)n(C)c2c1	6.76%
CCC(=NCc1ccco1)c1c(O)n(-c2ccc(OC)cc2)c(=O)[nH]c1=O	-23.7%
CC1CC(C)(C)CC2(C1)NC(=O)N(CC(=O)N1CCN(S(=O)(=O)c3cccs3)CC1)C2=O (stereo not shown)	-7.67%
CCN(CC)S(=O)(=O)c1cccc2nsnc12	16%
O=C(Nc1ccc(F)cc1)Nc1cc(S(=O)(=O)N2CCOCC2)ccc1N1CCCC1	-97.4%
CCCN(C(=O)CSc1nc2ccccc2n1CC)C1CCS(=O)(=O)C1 (stereo not shown)	2.29%
Cc1cccn2c(=O)c3cc(C(=O)NCC4CCCO4)c(=N)n(Cc4ccc(F)cc4)c3nc12 (stereo not shown)	-75.7%
Cc1ccc(-c2c(C(=O)NC(C)C)oc(=O)c3ccccc23)cc1	-8.59%
CC1Cc2ccccc2N1CC(=O)NCc1ccc2c(c1)OCO2 (stereo not shown)	11.1%
O=[N+]([O-])c1ccc(C2(O)CN(c3ccccc3)C3=[N+]2CCS3)cc1.[Br-] (stereo not shown)	-60.8%
Cc1ccc2oc(=O)c3cnn(CC(=O)Nc4cc(-c5cccc(F)c5)no4)c3c2c1	-4.48%
O=c1oc(-c2ccccc2F)nc2scc(-c3ccccc3)c12	-25.2%
Cc1cc(=O)oc2c(C)c(OCC(=O)N(C)C)ccc12	9.8%
CC1CN(C(=O)c2cc3c(=O)n4ccccc4nc3n2C)CC(C)O1 (stereo not shown)	15.4%
O=C(Nc1ccc(OC(F)(F)F)cc1)c1cnc2n(c1=O)CCS2	-33.8%
O=C(NC1CCCC1)C(c1cccs1)N(C(=O)c1ccco1)c1ccc2c(c1)OCCO2 (stereo not shown)	-22.6%
CC1(C)CC(=O)c2cc(OCC(=O)NCCCN3CCN(c4ccccc4F)CC3)ccc2O1	-47.4%
Cc1nnc(SCC(=O)N2CCN(c3ccccc3)CC2)n1C1CC1	5.65%
CC(Oc1ccc(Cl)cc1)C(=O)NCC1CCCO1 (stereo not shown)	2.5%

SMILES	hERG current change (%, negative = inhibition) at 10uM
O/N=C(\c1ccccn1)C1CC1c1ccccc1 (stereo not shown)	10.3%
Cc1ccc(S(=O)(=O)N(C)C)cc1NC(=O)COC(=O)c1ccc2c(c1)OCO2	-15.7%
COc1ccc(-c2cc(=O)oc3cc(OC(C)C(=O)NCC4CCC(C(=O)O)CC4)ccc23)cc1 (stereo not shown)	10.6%
CCC(Sc1nc(C)cc(C)n1)C(=O)Nc1cc(C)on1 (stereo not shown)	-1.92%
NS(=O)(=O)c1cccc(NC(=O)Nc2ccc(Cl)cc2)c1	-2.59%
COc1ccccc1C(=O)NC(C)c1ccc(-n2ccnc2)cc1 (stereo not shown)	-52.6%
CCOC(=O)c1ccc(NC(=O)c2nc[nH]c2C(=O)N[C@@H](CC(C)C)C(=O)OC(C)(C)C)cc1	1.54%
CC(=O)N1c2ccc(S(=O)(=O)N3CCC(C(=O)Nc4cccc(F)c4)CC3)cc2CC1C (stereo not shown)	-0.952%
CCC(CC)NC(=O)CSc1ccc(S(=O)(=O)N2CCOCC2)cn1	-1.92%
O=C1CCCN1CCCNS(=O)(=O)c1ccccc1	16.7%
CCCCc1cc(=O)oc2cc(C)cc(OCC(=O)NCc3cccnc3)c12	-54.1%
O=C(COC(=O)c1ccco1)Nc1nc2c(F)c(F)c(F)cc2s1	1.61%
CCOC(=O)N1CCC(NC(=O)c2cc(C(=O)Nc3ccc(S(=O)(=O)N4CCOCC4)cc3)ccc2CO)CC1	36.8%
Cc1ccc2c(c1)C1CC(C)(O2)N(c2cccc(C(=O)N3CCN(c4ccccn4)CC3)c2)C(=O)N1 (stereo not shown)	-25.3%
O=C(Nc1ccc(N2CCOCC2)c(Cl)c1)C1CCCCC1	6.65%
CN(C)C(=O)CSC1c2ccccc2C(=O)N1c1ccccc1 (stereo not shown)	9.06%
CCC(CC)C1C(C#N)=C(N)Oc2n[nH]c(-c3ccccc3)c21 (stereo not shown)	17.9%
O=C(NCc1ccc2c(c1)OCO2)C1CCN(c2nccc(C(F)(F)F)n2)CC1	-6.63%
CCOc1cc(N2CCOCC2)c(OCC)cc1NC(=O)c1ccc(OC(C)C)cc1	6.24%
CC(=O)c1c(O)cc(O)cc1CC(=O)O	-4.21%
COc1ccc(C(=O)Nc2ccccc2C(=O)Nc2cccc(C)n2)cc1	10.3%
CCc1ccc(/C=C2\Oc3cc(OS(C)(=O)=O)ccc3C2=O)cc1	11.8%
CCOC(=O)C1CCN(C(=O)CNC(=O)Cn2c(C)cc3ccccc3c2=O)CC1	6.61%
COc1ccc(OC)c(NC(=O)CSc2nnc(N)s2)c1	12.2%
Cc1ccc([N+](=O)[O-])cc1S(=O)(=O)N1CCCC1	7.21%
Cc1ccc2nc(C)cc(N/N=C/c3ccc(F)cc3)c2c1	-4.02%
O=C1C=C(c2cccc(Cl)c2O)C[C@@H](c2ccc(F)cc2)C1	-17.5%
